Source: publication PMC3257419 (Journal of Medicinal Chemistry, 2011)

System: nucleus accumbens dopamine
Details: i.p. 60 min prior to cocaine 20 mg/kg; vigabatrin 300 mg/kg, CPP-115 1 mg/kg

SMILES: C=CC(N)CCC(=O)O (stereo not shown) [Vigabatrin, vigabatrin]
- cocaine-induced increase in dopamine after pretreatment: 331 ± 32%
